B1: GPR68, Q15743 (parent)
chain: MGNITADNSSMSCTIDHTIHQTLAPVVYVTVLVVGFPANCLSLYFGYLQIKARNELGVYLCNLTVADLFYICSLPFWLQYVLQHDNWSHGDLSCQVCGILLYENIYISVGFLCCISVDRYLAVAHPFRFHQFRTLKAAVGVSVVIWAKELLTSIYFLMHEEVIEDENQHRVCFEHYPIQAWQRAINYYRFLVGFLFPICLLLASYQGILRAVRRSHGTQKSRKDQIQRLVLSTVVIFLACFLPYHVLLLVRSVWEASCDFAKGVFNAYHFSLLLTSFNCVADPVLYCFVSETTHRDLARLRGACLAFLTCSRTGRAREAYPLGAPEASGKSGAQGEEPELLTKLHPAFQTPNSPGSGGFPTGRLA

Series [1] covers variants of B1. The series can be described thus: cAMP reporter score (Enrich2 score, wild type = 0); higher = more signal; HEK293T, FACS bins.
Variants of B1 are the subject of series [2]. In words: surface expression score (Enrich2 score, wild type = 0); higher = more signal; HEK293T, FACS bins.

Scores whose standard error is large were omitted. The source holds two more conditions with little spread; they are left out. In variant names, del marks residues removed and ins residues inserted between the two positions. For some assays here: The concentration of ogerin is not given here.

Take I226_Q227insGS: the cAMP reporter score in series [1] (pH 5.5) was -0.838; in series [1] (pH 6), -0.409; in series [1] (pH 6, modulator: ogerin) it was -1.07; in series [1] (pH 6.5, modulator: ogerin) it was -0.72. Besides, the surface expression score in series [2] came out at 1.6.
In the case of K220_S221insGS, the cAMP reporter score in series [1] (pH 5.5) is -0.741; in series [1] (pH 6) it was -0.754; in series [1] (pH 6, modulator: ogerin), -0.939; in series [1] (pH 6.5, modulator: ogerin) it was -0.432. Further, the surface expression score in series [2] was found to be 0.546.
Regarding V230del, the cAMP reporter score was -1.9 in series [1] (pH 5.5); -2.02 in series [1] (pH 6); -1.57 in series [1] (pH 6.5, modulator: ogerin). Besides, in series [2], the surface expression score was -2.42.
Regarding Q227del, the cAMP reporter score in series [1] (pH 5.5) was -1.97; in series [1] (pH 6) it was -0.348; in series [1] (pH 6, modulator: ogerin) it was -1.76; in series [1] (pH 6.5, modulator: ogerin) it was -0.532. In series [2], the surface expression score was -0.063.
For D224_I226del, the cAMP reporter score in series [1] (pH 5.5) is -0.427; in series [1] (pH 6), -0.656; in series [1] (pH 6, modulator: ogerin), -0.699; in series [1] (pH 6.5, modulator: ogerin) it was -1.7. Besides, in series [2], the surface expression score stood at 0.889.
The like results for S221_R222insG were, in that order, -1.41, -0.678, -1.49, -0.891 and -0.124.
The like results for F237del were, in that order, -1.59, -0.967, -1.37, -0.763 and -1.98.
In the case of V235_I236del, the cAMP reporter score in series [1] (pH 5.5) was -2.39; in series [1] (pH 6) it was -0.711; in series [1] (pH 6.5, modulator: ogerin), -1.91. The surface expression score in series [2] was -3.72.
Take Q225_I226insGS: the cAMP reporter score is -1.64 in series [1] (pH 5.5); -1.33 in series [1] (pH 6); -1.52 in series [1] (pH 6, modulator: ogerin); -1.71 in series [1] (pH 6.5, modulator: ogerin). The surface expression score in series [2] is -0.777.
On the same counts, the results for K223_D224del are -1.46, -1.47, -1.24, -0.939 and 1.15.
For K220Y, the cAMP reporter score was -0.662 in series [1] (pH 5.5); 0.001 in series [1] (pH 6); 0.222 in series [1] (pH 6, modulator: ogerin); -0.295 in series [1] (pH 6.5, modulator: ogerin). Further, in series [2], the surface expression score is -0.165.
For the variant K220W, the cAMP reporter score in series [1] (pH 5.5) was -0.839; in series [1] (pH 6) it was -0.522; in series [1] (pH 6, modulator: ogerin), -0.874; in series [1] (pH 6.5, modulator: ogerin), -1.54. In series [2], the surface expression score was determined as 0.766.
On the same counts, the results for T233_V235del are -0.931, -2.01, -1.99, -0.788 and -3.31.
Take S232_T233insGS: the cAMP reporter score is -1.59 in series [1] (pH 5.5); -0.792 in series [1] (pH 6); -1.07 in series [1] (pH 6.5, modulator: ogerin).
As to S232_T233insG, the cAMP reporter score was -1.69 in series [1] (pH 5.5); -1.17 in series [1] (pH 6); -1.88 in series [1] (pH 6, modulator: ogerin).
Regarding L229_V230insGS, the cAMP reporter score in series [1] (pH 5.5) is -1.03; in series [1] (pH 6, modulator: ogerin), -1.04; in series [1] (pH 6.5, modulator: ogerin), -0.909. Also, the surface expression score in series [2] is -2.79.
For K223_Q225del, the cAMP reporter score is 1.26 in series [1] (pH 5.5); 0.013 in series [1] (pH 6); 1.24 in series [1] (pH 6, modulator: ogerin); -0.555 in series [1] (pH 6.5, modulator: ogerin). Besides, in series [2], the surface expression score is 0.947.
The like results for I226_R228del were, in that order, -1.55, -0.623, -2.47, -1.04 and -0.399.
Take I236_F237insGSG: the cAMP reporter score was -1.02 in series [1] (pH 5.5); -0.506 in series [1] (pH 6); -1 in series [1] (pH 6, modulator: ogerin); -0.62 in series [1] (pH 6.5, modulator: ogerin). For the same variant, the surface expression score in series [2] is -2.63.
Turning to L231_S232insGS, the cAMP reporter score in series [1] (pH 5.5) was -1.85; in series [1] (pH 6), -0.479; in series [1] (pH 6, modulator: ogerin), -0.86; in series [1] (pH 6.5, modulator: ogerin) it was -1.03. In series [2], the surface expression score was -2.39.
For K223M, the cAMP reporter score in series [1] (pH 5.5) is -1.24; in series [1] (pH 6, modulator: ogerin), -1.26; in series [1] (pH 6.5, modulator: ogerin), -0.475. The surface expression score in series [2] amounted to 1.35.
Regarding K223Y, the cAMP reporter score in series [1] (pH 5.5) was -1.02; in series [1] (pH 6.5, modulator: ogerin), -2.53. Further, the surface expression score in series [2] stood at 0.625.
Consider K223T, for which the cAMP reporter score was -0.663 in series [1] (pH 5.5); -0.778 in series [1] (pH 6); -0.892 in series [1] (pH 6, modulator: ogerin); -0.794 in series [1] (pH 6.5, modulator: ogerin). In series [2], the surface expression score stood at 2.34.
On the same counts, the results for K223P are -1.35, 0.471, -1.38, -1.28 and -0.576.
On the same counts, the results for K223V are -1.05, -1.16, -0.973, -1.46 and 0.547.
In the case of K223N, the cAMP reporter score in series [1] (pH 5.5) was -0.926; in series [1] (pH 6) it was -0.432; in series [1] (pH 6, modulator: ogerin), -1.59; in series [1] (pH 6.5, modulator: ogerin), -1.52. Besides, the surface expression score in series [2] is 0.448.
The like results for K223G were, in that order, -1.71, -0.499, -1.1, -1.89 and 1.3.
The like results for K223S were, in that order, -0.896, -1.56, -1.92, -1.43 and 1.47.
Turning to K223L, the cAMP reporter score in series [1] (pH 5.5) is -0.889; in series [1] (pH 6) it was -0.144; in series [1] (pH 6, modulator: ogerin), -0.934; in series [1] (pH 6.5, modulator: ogerin), -0.948. The surface expression score in series [2] turned out to be 1.37.
The like results for K223E were, in that order, -1.08, -0.701, -1.52, -1.13 and -0.033.
The like results for K223Q were, in that order, -0.128, -1.19, 0.197, -0.315 and 1.37.
Take K223A: the cAMP reporter score was 0.067 in series [1] (pH 5.5); -0.72 in series [1] (pH 6); -0.669 in series [1] (pH 6, modulator: ogerin); -2.78 in series [1] (pH 6.5, modulator: ogerin).

Source of the values: the GPR68 mutational scans of Howard et al. (2025).
